According to PubChem BioAssay AID2546 (National Center for Advancing Translational Sciences (NCATS), 2010):
In all, about 310,000 compounds went through this assay and about 11,000 (3.5%) were called active. Inconclusive results, whose numbers are uncertain, are shown with a selection of clear calls. Calls follow the shape of the dose curve; as a rule, active = well fitted inhibition curve with a large enough effect; inconclusive = small, poorly fitted or top-dose-only effect, or effect the other way; inactive = flat fitted curve, though single readings scatter. No potency is given beside an inconclusive call; the fits are too rough.
Potency is read from the fitted curve at half-maximal effect; tags tell the direction and shape of the fitted curve.

Experiment: VP16 counterscreen qHTS for inhibitors of ROR gamma transcriptional activity;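 also: Gal4-VP16 expression switched on by copper sulfate through the metallothionein promoter; nearly all actives have a fitted effect of over 50% in size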
Details: Drosophila S2 Gal4-VP16 UAS-luciferase, luminescence, 20 h; series mostly up to 53.6 µM
For `COc1ccccc1CNC(=O)c1ccc2nc3[nH]c4ccccc4c3nc2c1`, the Potency was inconclusive [inhibitor, partial curve]. For `O=C(/C=C(\O)c1ccccc1)C(=O)NNC(=O)c1ccccc1[N+](=O)[O-]`, the Potency was inconclusive [activator, full curve, poor fit]. In the case of `CC(=O)c1ccc(N2CCN(S(=O)(=O)c3cc4c(cc3C)NC(=O)CO4)CC2)cc1`, the Potency is reported as inconclusive [inhibitor, single point]. For `CC(C)NC(=O)C1COc2ccccc2O1` (centres undefined), the Potency was “inactive”. With `Cc1cc2ccccc2n2c(SCC(=O)Nc3ccc(S(=O)(=O)N4CCCCC4)cc3)nnc12` the Potency was inconclusive [inhibitor, single point]. For `N/C(=N\OC(=O)c1cccc(Cl)c1)c1ccccn1`, the Potency was inconclusive [inhibitor, single point]. For `COc1ccc(CC(=O)n2[nH]c(=O)ccc2=O)cc1OC`, the Potency was inconclusive [inhibitor, single point]. For `COC(=O)c1ccc(NC(=O)CCS(=O)(=O)c2ccc3c(c2)NC(=O)C(C)S3)cc1` (centres undefined), the Potency was active: 7.08 µM. In the case of `Cc1ccccc1Nc1nc(N)nc(COC(=O)c2ccccc2)n1`, the Potency is reported as “inactive”. For `O=C(c1cc(COc2ccc(F)cc2Cl)on1)N1CCC(c2ccncc2)CC1`, the Potency was active: 7.08 µM. For `CNc1ccc(Oc2nc([N+](=O)[O-])nn2C)cc1`, the Potency was “inactive”. In the case of `CCn1c(=O)cc(OCC(=O)NCc2ccco2)c2ccccc21`, the Potency is reported as “inactive”. For `COc1cc(OC)c2c(-c3cccc(-c4cccc(N)c4)c3)cc(=O)oc2c1`, the Potency was active: 10 µM. In the case of `NNC(=O)COc1cccc(Oc2ccccc2)c1`, the Potency is reported as inconclusive [activator, single point]. With `CCCCC1S/C(=N/N=C/c2ccco2)NC1=O` (centres undefined) the Potency was active: 2 µM. For `c1ccc(-c2cc(-c3ccc(N4CCOCC4)cc3)nc3ccccc23)cc1`, the Potency was “inactive”. In the case of `CC(C)NC(=S)N/N=C/c1cccnc1`, the Potency is reported as “inactive”. With `CCOc1ccc(NC(=S)Nc2cc(OC)c(Cl)cc2OC)cc1` the Potency was active: 22.4 µM. For `COc1ccc(OCc2cc(C(=O)NC(C)Cc3ccccn3)no2)c(Cl)c1` (centres undefined), the Potency was “inactive”. With `COc1c(Cl)cnn(-c2ccc(C)cc2)c1=O` the Potency was “inactive”. For `COc1ccc(C2SCCN2C(=S)Nc2ccc(F)cc2)cc1` (centres undefined), the Potency was inconclusive [inhibitor, single point]. For `NS(=O)(=O)c1ccc(CCN=C(NS(=O)(=O)c2cccs2)c2ccccc2)cc1`, the Potency was “inactive”. In the case of `O=C(c1[nH]ncc1-c1cccc(Br)c1)C1CO1` (centres undefined), the Potency is reported as inconclusive [inhibitor, single point]. In the case of `COC(=O)c1ccc(COc2ccc(/C=N/NC(N)=S)cc2)o1`, the Potency is reported as inconclusive [inhibitor, single point]. For `O=C(CSc1ncnc2c1oc1ccccc12)NCc1ccco1`, the Potency was active: 20 µM. With `CN(C)c1ncc2nc(CCc3ccccc3)c(=O)n(Cc3ccc(F)cc3)c2n1` the Potency was “inactive”. With `CCC(=O)c1ccc(N2CCN(C(=O)c3cccs3)CC2)c(F)c1` the Potency was inconclusive [inhibitor, partial curve]. For `CCOC(=O)c1nnc(-c2ccccc2)nc1Sc1c(Cl)cccc1Cl`, the Potency was active: 17.8 µM. For `COC(=O)c1c(NC(=O)CN2CCN(C(=O)c3ccco3)CC2)c2c(C)cccc2n1C`, the Potency was “inactive”. In the case of `O=C(NCCc1nc2ccccc2[nH]1)/C(=C/c1ccco1)NC(=O)c1ccc(Br)cc1`, the Potency is reported as “inactive”. For `O=C(CSc1cccc2cccnc12)NCc1ccco1`, the Potency was inconclusive [inhibitor, single point]. With `O=C(NC(=S)NCCSc1ccccc1)c1cccnc1` the Potency was inconclusive [inhibitor, single point]. With `O=C(N/N=C/C1CC=CCC1)c1ccccc1O` (centres undefined) the Potency was inconclusive [inhibitor, single point]. In the case of `Cc1ccc(-n2c(Cl)c(Cl)nc(Cl)c2=O)cc1`, the Potency is reported as active: 5.01 µM. For `CC(C)CCN1CC(C(=O)NC(C)C)CC1=O` (centres undefined), the Potency was inconclusive [activator, single point]. In the case of `CCOC(=O)c1sc(NC(=O)c2cccc(S(=O)(=O)N3CCN(C)CC3)c2)cc1C`, the Potency is reported as inconclusive [inhibitor, single point]. With `O=C(Cc1ccccc1)Nc1ccc(NC(=O)C2CCCCC2)nc1` the Potency was inconclusive [inhibitor, single point]. For `CCc1ccccc1NC(=O)COc1cccc(-n2cnnn2)c1`, the Potency was inconclusive [inhibitor, single point]. In the case of `C/C(CC(=O)NC(C)C)=N\NC(=O)COc1cc(C)c(Br)cc1Br`, the Potency is reported as inconclusive [inhibitor, single point]. With `N/C(=N\OC(=O)Cc1ccc(Cl)cc1)c1ccccn1` the Potency was inconclusive [activator, full curve, poor fit]. With `O=C(NCc1ccc(F)cc1)c1ccc(S(=O)(=O)Nc2cccc(C(F)(F)F)c2)cc1` the Potency was inconclusive [inhibitor, single point]. For `Clc1cnc(N/N=C/c2ccco2)c(Cl)c1`, the Potency was active: 12.6 µM. For `CC(c1ccccc1)C1C(C#N)=C(N)SC(N)=C1C#N` (centres undefined), the Potency was inconclusive [inhibitor, single point]. For `Cc1ccc(C)c(NC(=O)CCC(=O)NNC(=S)Nc2ccccc2)c1`, the Potency was “inactive”. For `O=C(CSC1=N/C(=C/c2ccco2)C(=O)N1c1ccc(OC(F)F)cc1)NC1CCS(=O)(=O)C1` (centres undefined), the Potency was inconclusive [activator, single point]. With `CCOc1ccc2c(c1)C(C)=CC(C)(C)N2S(=O)(=O)c1ccc(C)cc1` the Potency was inconclusive [inhibitor, single point]. In the case of `COc1ccc(CNc2nc(-c3ccccc3OC)nc3ccccc23)c(OC)c1`, the Potency is reported as inconclusive [inhibitor, partial curve]. With `CC(/C=C/c1ccc(N(C)C)cc1)=N\N=C(/N)SC1CC(=O)N(c2ccc(C(=O)O)cc2)C1=O` (centres undefined) the Potency was active: 2.24 µM. For `Cc1ccc(-c2nc3cc(C)ccc3o2)cc1`, the Potency was active: 14.1 µM. In the case of `CC(=O)NC(CC(=O)Nc1nc(-c2ccc(N(C)S(C)(=O)=O)cc2)cs1)c1ccccc1` (centres undefined), the Potency is reported as active: 11.2 µM. For `Cc1ccc(C(=O)NC(=S)NNC(=O)COc2ccc([N+](=O)[O-])cc2)cc1`, the Potency was active: 11.2 µM. With `Cn1nc(C(C)(C)C)cc1C(=O)NNC(=O)c1cccc(Cl)c1` the Potency was inconclusive [inhibitor, single point]. With `CCCC(=O)NC(c1ccccc1Cl)c1ccc2cccnc2c1O` (centres undefined) the Potency was active: 4.47 µM. In the case of `CC(=O)c1c(O)cc(O)c(C(C)=O)c1O`, the Potency is reported as active: 10 µM. With `CC(C)NC(=O)NC(=O)CSc1nnc(COc2ccccc2F)n1C(C)C1CC2CCC1C2` (centres undefined) the Potency was inconclusive [inhibitor, single point]. With `NNc1nc(Nc2ccc([N+](=O)[O-])cc2)nc(N2CCCCCC2)n1` the Potency was active: 15.8 µM. For `O=C1N=C(N2CCc3ccccc3C2)S/C1=C\c1ccc(O)cc1`, the Potency was active: 1.58 µM. In the case of `CC(CCc1ccccc1)NC(=O)/C=C/c1ccc(Cl)cc1` (centres undefined), the Potency is reported as inconclusive [inhibitor, single point]. In the case of `CC(C)(C)c1ccc2c(c1)OC(C(=O)N/N=C\c1ccc[nH]1)CO2` (centres undefined), the Potency is reported as active: 5.01 µM. With `CN(C)CCN=Cc1c(O)n(Cc2ccccc2)c(=O)c2ccccc12` the Potency was inconclusive [inhibitor, single point]. With `Cc1ccccc1C(=O)NC(=S)NC1CC1` the Potency was inconclusive [inhibitor, single point]. In the case of `CCOC(=O)c1ccc(NC(=O)c2nccnc2C(=O)O)cc1`, the Potency is reported as inconclusive [inhibitor, single point]. For `COc1cc(NC(=S)NC2CC2)c(OC)cc1Cl`, the Potency was inconclusive [inhibitor, single point]. With `CCNC(=O)[C@@H]1CCCN1C(=O)[C@H](CCCN=C(N)N)NC(=O)[C@H](CC(C)C)NC(=O)[C@@H](Cc1c[nH]c2ccccc12)NC(=O)[C@H](Cc1ccc(O)cc1)NC(=O)[C@H](CO)NC(=O)[C@H](Cc1c[nH]c2ccccc12)NC(=O)[C@H](Cc1cnc[nH]1)NC(=O)[C@@H]1CCC(=O)N1` the Potency was inconclusive [inhibitor, single point]. For `O=C(Nc1c2c(nc3ccccc13)CCCC2)c1cccc([N+](=O)[O-])c1`, the Potency was inconclusive [activator, single point]. For `Fc1ccccc1/C=C1\CCCC2=C1Nc1ncnn1C2c1ccccc1F` (centres undefined), the Potency was active: 3.98 µM. With `O=C(CSc1nc(Cc2ccccc2)nc2ccccc12)Nc1nc2c(s1)CCCC2` the Potency was inconclusive [inhibitor, single point]. For `S=C1NC(c2ccccc2)=NCN1c1ccc(Cl)cc1`, the Potency was inconclusive [inhibitor, single point]. For `O=C(NNC(=S)NC(=O)c1cccnc1)c1ccc(F)cc1`, the Potency was inconclusive [inhibitor, single point]. In the case of `Cc1ccc(-c2cc(-c3ccc(F)cc3)n[nH]2)c(O)c1`, the Potency is reported as active: 7.08 µM. With `Cc1cccc(N2CCN(C(=O)/C=C/c3ccco3)CC2)c1C` the Potency was inconclusive [activator, single point]. In the case of `COc1ccc(Cl)cc1C(=O)N1CCN(Cc2ccc3c(c2)OCO3)CC1`, the Potency is reported as “inactive”. With `Cc1ccc(C(=O)NC(=S)N2CCN(c3cc(C)ccc3C)CC2)cc1` the Potency was active: 1 µM. For `C[C@]12CC[C@H]3c4ccc(O)cc4CC[C@@H]3[C@H]1CC[C@@H]2OC(=O)CCC1CCCC1`, the Potency was inconclusive [inhibitor, single point].
